Reference: PubChem BioAssay AID485281 (National Center for Advancing Translational Sciences (NCATS), 2010)
Hit rate of the full screen: of about 350,000 compounds, about 260 (0.074%) were called active. This list was built around the results that the source calls inconclusive (neither active nor inactive); the mix of calls is not that of the screen. Calls follow the shape of the dose curve; as a rule, active = well fitted inhibition curve with a large enough effect; inconclusive = small, poorly fitted or top-dose-only effect; inactive = no such curve, though single readings can be large or run the other way. Potencies of inconclusive entries are doubtful fits and often do not repeat.

Molecular target: Ferritin light chain (Equus caballus) (UniProt P02791)
Experiment: qHTS Assay for Identification of Novel General Anesthetics; also: nearly all actives have a fitted effect of over 20% in size
Conditions: apoferritin/1-aminoanthracene competitive binding, fluorescence; activity change, negative = displacement: at 77.5 µM (top of the series)
Outline: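 10 uM apoferritin + 50% sat. 1-AMA, PBS; cpd 10 min RT; Ex380/Em535 endpoint; normalized to free probe vs complex; 4-param Hill fit; propofol titration as pos. ctrl.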
% is scaled to controls: 0 for no effect and ±100 for the full control effect; potency is read from the fitted curve at half-maximal effect; tags tell the direction and shape of the fitted curve.

Chain of UniProt P02791 (P02791 whole entry, looked up): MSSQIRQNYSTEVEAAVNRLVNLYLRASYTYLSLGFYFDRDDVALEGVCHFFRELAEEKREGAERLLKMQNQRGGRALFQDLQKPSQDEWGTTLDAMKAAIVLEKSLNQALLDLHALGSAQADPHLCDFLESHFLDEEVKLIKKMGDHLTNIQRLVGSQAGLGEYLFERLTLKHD

| Structure (SMILES) | Potency | activity change, negative = displacement |
| --- | --- | --- |
| CC1(C)NC(=O)N(CCSc2ccc(Cl)cc2)C1=O | inconclusive: 20 µM [inhibitor, partial curve] | – |
| CCOC(=O)Cc1csc(SCC(=O)Nc2cccc(Cl)c2)n1 | inconclusive: 50.1 µM [inhibitor, single point] | – |
| O=C(/C(N=Nc1cccc(C(F)(F)F)c1)=C(/O)c1cccs1)C(F)(F)F | inconclusive: 50.1 µM [inhibitor, single point] | – |
| CSc1ccccc1OCc1cc(C(=O)NCc2cccc(C)n2)no1 | inconclusive: 22.4 µM [inhibitor, single point] | – |
| Cc1cccc(Nc2nc(C)nc3c2oc2ccccc23)c1 | inconclusive: 39.8 µM [inhibitor, single point] | – |
| O=C(CC1C(=O)NCCN1CCCc1ccccc1)NCCc1ccccc1F (stereo not given) | inconclusive: 14.1 µM [inhibitor, partial curve] | – |
| CNS(=O)(=O)c1cccc(C(=O)OCC(=O)Nc2ccc(N3CCCCC3)cc2)c1 | inconclusive: 14.1 µM [inhibitor, partial curve] | – |
| O=C(NCc1ccco1)C1CC(c2c(Cl)cccc2Cl)=NO1 (stereo not given) | inconclusive: 14.1 µM [inhibitor, partial curve] | – |
| COc1ccc(CC(=O)NCCc2csc(-c3ccc(C(F)(F)F)cc3)n2)cc1 | inconclusive: 5.62 µM [inhibitor, full curve, poor fit] | – |
| N/C(Cc1ccc([N+](=O)[O-])cc1)=N\OC(=O)c1ccc2ccccc2c1 | inconclusive: 4.47 µM [inhibitor, full curve] | – |
| COC(=O)c1sc2cccc(F)c2c1S(=O)(=O)Nc1ccc(C)cc1Cl | inconclusive: 22.4 µM [inhibitor, partial curve] | – |
| Cc1ccc(NS(=O)(=O)c2ccc3c(c2)[C@H]2C=CC[C@H]2[C@@H](c2ccc(F)cc2)N3)cc1C | inconclusive: 17.8 µM [inhibitor, partial curve] | – |
| CCN(CC)C(=O)c1c(C)nc2ccccn12 | inconclusive: 50.1 µM [inhibitor, single point] | – |
| Nc1ccc(Sc2cnn(-c3ccccc3)c(=O)c2Cl)cc1 | inconclusive: 31.6 µM [inhibitor, single point] | – |
| O=C(N/N=C/c1ccc(OCc2ccccc2)cc1)c1cc[n+](Cc2ccccc2)cc1 | inconclusive: 31.6 µM [inhibitor, single point] | – |
| O=C(Cc1ccccc1[N+](=O)[O-])NC1CC2CCC1C2 (stereo not given) | inconclusive: 22.4 µM [inhibitor, partial curve] | – |
| CCC(C)c1ccc(NC(=O)c2ccco2)cc1 (stereo not given) | inconclusive: 35.5 µM [inhibitor, partial curve] | – |
| Oc1ccc(C(=S)N2CCCCCC2)cc1 | inconclusive: 12.6 µM [inhibitor, partial curve] | – |
| COC1=C/C(=C/c2c(N)n3nc(-c4ccc(C)cc4)sc3nc2=O)C=CC1=O | inconclusive: 28.2 µM [inhibitor, single point] | – |
| O=[N+]([O-])c1ccc(Oc2cccc(Br)c2)c2ccncc12 | inconclusive: 22.4 µM [inhibitor, partial curve] | – |

| Structure (SMILES) | Potency | activity change, negative = displacement |
| --- | --- | --- |
| CCN(CC)C(=O)C1CCCN(Cc2ccccc2C(F)(F)F)C1 (stereo not given) | – | inactive: -0.908% |
| c1nc2sc3c(c2c2nnnn12)CCC3 | inconclusive: 25.1 µM [inhibitor, partial curve] | – |
| CC(C)(C)c1ccc(C(=O)N2CCCCCC2=O)cc1 | – | inactive: -10.5% |
| Cc1conc1NC(c1cccs1)c1ccc2cccnc2c1O (stereo not given) | inconclusive: 25.1 µM [inhibitor, partial curve] | – |
| O=C(COC(=O)c1c2c(nc3ccccc13)/C(=C/c1ccco1)CC2)NC1CCCC1 | inconclusive: 20 µM [inhibitor, partial curve] | – |
| COc1cccc(N2CCN(C(=O)c3ccc4nc[nH]c4c3)CC2)c1 | inconclusive: 15.8 µM [inhibitor, partial curve] | – |
| CCOC(=O)c1ccc(NC(=O)CSc2nccn2-c2cc(C)cc(C)c2)cc1 | – | inactive: 2.95% |
| CO[C@H]1C[C@@H]2CC[C@@H](C)[C@@](O)(O2)C(=O)C(=O)N2CCCC[C@H]2C(=O)OC([C@H](C)C[C@@H]2CC[C@@H](O)[C@H](OC)C2)CC(=O)[C@H](C)/C=C(\C)[C@@H](O)[C@@H](OC)C(=O)[C@H](C)C[C@H](C)/C=C/C=C/C=C/1C (stereo not given in full) | inconclusive: 2.51 µM [inhibitor, partial curve] | – |
| CC(=O)c1ccc(N2CCN(C(=O)CCn3cnc4onc(-c5ccc(F)cc5)c4c3=O)CC2)cc1 | – | inactive: -1.54% |
| CCOC(=O)N/N=C\c1ccc(-c2cccc(C(F)(F)F)c2)o1 | inconclusive: 35.5 µM [inhibitor, single point] | – |
| Cc1cc(Cl)ccc1Oc1cccc(C(=O)/C(C#N)=C/N(C)C)c1 | inconclusive: 31.6 µM [inhibitor, partial curve] | – |
| C/C(=N\NC(=O)c1ccco1)c1cc(Cl)sc1Cl | inconclusive: 44.7 µM [inhibitor, single point] | – |
| CCS(=O)(=O)Nc1ccc(Cc2ccc(NS(=O)(=O)CC)cc2)cc1 | inconclusive: 39.8 µM [inhibitor, partial curve] | – |
| O=C(OCC(=O)c1cccs1)c1ccccc1 | inconclusive: 25.1 µM [inhibitor, partial curve] | – |
| O=C(Cc1c[nH]c2ccccc12)OCC(=O)c1ccccc1 | inconclusive: 14.1 µM [inhibitor, partial curve] | – |
| Nc1nc(N)c(N=Nc2ccc(Cl)cc2)c(=O)[nH]1 | – | inactive: -2.13% |
| COC(=O)c1c(N)sc(Cc2ccccc2)c1C | inconclusive: 22.4 µM [inhibitor, partial curve, poor fit] | – |
| COc1ccccc1NC(=O)C(CC=C(Cl)Cl)C(C)=O (stereo not given) | inconclusive: 31.6 µM [inhibitor, partial curve] | – |
| Cc1c(/C(O)=C2\C(=O)C(=O)N(CCN(C)C)C2c2cccs2)cnn1-c1ccccc1 (stereo not given) | inconclusive: 31.6 µM [inhibitor, partial curve] | – |
| C/C(=N\NC(=O)C1CC1)c1ccc(OC(F)F)cc1OC(F)F | – | inactive: 3.04% |
